{"source": "the supplement of paper PMC10126150", "note": "Sequences with one replicate were seen in a single cluster, so their values are uncertain.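 Note: ATP exposure 15 min at 22 °C before imaging.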", "data": [{"test_system": "ATP", "assay": "switch fluorescence ratio, 500 uM ATP over buffer (Cy3 cluster intensity, sum of 5 cycles each) (fold (ratio)); higher = stronger signal-on switching upon ATP binding; sequences stand for … in TCGTCGGCAGCGTCAGATGTGTATAAGAGACAGTTTTTTTTTTTTTTTTTTTTTTTTT…TC", "details": "aptamer strand: ATP DNA aptamer (quencher-CACCTGGGGGAGTATTGCGGAGGAAGG + anchor), 100 nM annealed; ATP concentration: 500 uM; one replicate", "outline": "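Imaging in selection buffer was followed by imaging after 15 min with 500 uM ATP at 22 °C, for Cy3-labelled switching-strand clusters annealed to 100 nM quencher-labelled ATP aptamer on a modified Illumina MiSeq flow-cell. Five of these buffer/ATP cycles ran, separated by NaOH stripping and re-annealing. The fluorescence ratio per cluster is summed target-cycle over summed buffer-cycle Cy3 intensity, averaged per switch-domain sequence; clusters outside 100-1000 RFU were removed.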", "values": [{"sequence": "TAGGCTGTCC", "switch fluorescence ratio": 1}, {"sequence": "TAGGCTTGAT", "switch fluorescence ratio": 0.982}, {"sequence": "TAGGGACGAA", "switch fluorescence ratio": 1.02}, {"sequence": "TAGGGAGGC", "switch fluorescence ratio": 0.927}, {"sequence": "TAGGGAGTTG", "switch fluorescence ratio": 0.983}, {"sequence": "TAGGGATGTC", "switch fluorescence ratio": 1.01}, {"sequence": "TAGGGCGCTC", "switch fluorescence ratio": 1}, {"sequence": "TAGGGGACAT", "switch fluorescence ratio": 0.962}, {"sequence": "TAGGGGAGT", "switch fluorescence ratio": 0.992}, {"sequence": "TAGGGGATCG", "switch fluorescence ratio": 1.05}, {"sequence": "TAGGGTGACT", "switch fluorescence ratio": 1.05}, {"sequence": "TAGGTATAA", "switch fluorescence ratio": 0.99}, {"sequence": "TAGGTATAC", "switch fluorescence ratio": 1.07}, {"sequence": "TAGGTCATTA", "switch fluorescence ratio": 1}, {"sequence": "TAGGTCCCTC", "switch fluorescence ratio": 0.979}, {"sequence": "TAGGTGATAG", "switch fluorescence ratio": 1.02}, {"sequence": "TAGGTGCACT", "switch fluorescence ratio": 1.05}, {"sequence": "TAGGTTACTG", "switch fluorescence ratio": 0.953}, {"sequence": "TAGGTTAGTA", "switch fluorescence ratio": 0.996}, {"sequence": "TAGGTTGGA", "switch fluorescence ratio": 1.02}, {"sequence": "TAGGTTGGGC", "switch fluorescence ratio": 0.968}, {"sequence": "TAGGTTGTTA", "switch fluorescence ratio": 0.959}, {"sequence": "TAGTAAATTT", "switch fluorescence ratio": 1.01}, {"sequence": "TAGTAATCTG", "switch fluorescence ratio": 0.935}, {"sequence": "TAGTACAAGC", "switch fluorescence ratio": 1.03}, {"sequence": "TAGTACCGTG", "switch fluorescence ratio": 1.02}, {"sequence": "TAGTACTTCC", "switch fluorescence ratio": 1.95}, {"sequence": "TAGTAGAA", "switch fluorescence ratio": 0.998}, {"sequence": "TAGTAGAGCG", "switch fluorescence ratio": 1.03}, {"sequence": "TAGTAGCAG", "switch fluorescence ratio": 1.29}, {"sequence": "TAGTATATGT", "switch fluorescence ratio": 1.01}, {"sequence": "TAGTCACACT", "switch fluorescence ratio": 1.03}, {"sequence": "TAGTCATAAC", "switch fluorescence ratio": 0.992}, {"sequence": "TAGTCATCAC", "switch fluorescence ratio": 1.03}, {"sequence": "TAGTCCGGAG", "switch fluorescence ratio": 0.966}, {"sequence": "TAGTCGGATC", "switch fluorescence ratio": 0.949}, {"sequence": "TAGTCGTCTT", "switch fluorescence ratio": 1.01}, {"sequence": "TAGTCTGGGT", "switch fluorescence ratio": 0.969}, {"sequence": "TAGTCTTTGT", "switch fluorescence ratio": 0.961}, {"sequence": "TAGTGAAGAC", "switch fluorescence ratio": 0.936}, {"sequence": "TAGTGCGAGG", "switch fluorescence ratio": 1.01}, {"sequence": "TAGTGCGCT", "switch fluorescence ratio": 1.02}, {"sequence": "TAGTGGACTG", "switch fluorescence ratio": 0.975}, {"sequence": "TAGTGGAGCC", "switch fluorescence ratio": 1.02}, {"sequence": "TAGTGTGGGT", "switch fluorescence ratio": 1.05}, {"sequence": "TAGTTAAAGG", "switch fluorescence ratio": 1.01}, {"sequence": "TAGTTAAGCT", "switch fluorescence ratio": 0.958}, {"sequence": "TAGTTAGGCC", "switch fluorescence ratio": 1.01}, {"sequence": "TAGTTCTATC", "switch fluorescence ratio": 0.987}, {"sequence": "TAGTTGGCG", "switch fluorescence ratio": 0.989}, {"sequence": "TAGTTGTCGA", "switch fluorescence ratio": 0.958}, {"sequence": "TAGTTGTTC", "switch fluorescence ratio": 0.959}, {"sequence": "TAGTTTATAT", "switch fluorescence ratio": 1.07}, {"sequence": "TAGTTTCAAC", "switch fluorescence ratio": 1.04}, {"sequence": "TAGTTTGACT", "switch fluorescence ratio": 1}, {"sequence": "TAGTTTGATA", "switch fluorescence ratio": 0.976}, {"sequence": "TAGTTTTGA", "switch fluorescence ratio": 0.984}, {"sequence": "TAGTTTTGC", "switch fluorescence ratio": 1.02}, {"sequence": "TAGTTTTTC", "switch fluorescence ratio": 0.981}, {"sequence": "TATAAAATAC", "switch fluorescence ratio": 1.38}, {"sequence": "TATAACCGCA", "switch fluorescence ratio": 1.5}, {"sequence": "TATAACTCTT", "switch fluorescence ratio": 1.05}, {"sequence": "TATAACTGTT", "switch fluorescence ratio": 1.13}, {"sequence": "TATAAGACCT", "switch fluorescence ratio": 1.38}, {"sequence": "TATAAGCCTT", "switch fluorescence ratio": 0.989}, {"sequence": "TATAAGCTTT", "switch fluorescence ratio": 0.993}, {"sequence": "TATAATAATG", "switch fluorescence ratio": 1}, {"sequence": "TATAATGAAT", "switch fluorescence ratio": 0.999}, {"sequence": "TATAATGCTA", "switch fluorescence ratio": 1.02}, {"sequence": "TATACA", "switch fluorescence ratio": 0.976}, {"sequence": "TATACAGTAG", "switch fluorescence ratio": 1.03}, {"sequence": "TATACATCTA", "switch fluorescence ratio": 1.02}, {"sequence": "TATACATGCC", "switch fluorescence ratio": 1.46}, {"sequence": "TATACATGTT", "switch fluorescence ratio": 0.993}, {"sequence": "TATACATTTT", "switch fluorescence ratio": 1.04}, {"sequence": "TATACCCGTT", "switch fluorescence ratio": 0.984}, {"sequence": "TATACGTGCG", "switch fluorescence ratio": 1}, {"sequence": "TATACTTTGG", "switch fluorescence ratio": 1}, {"sequence": "TATAGACGTC", "switch fluorescence ratio": 1.01}, {"sequence": "TATAGAGTT", "switch fluorescence ratio": 0.969}, {"sequence": "TATAGATACG", "switch fluorescence ratio": 1.05}, {"sequence": "TATAGATGTA", "switch fluorescence ratio": 1.01}, {"sequence": "TATAGCGGCC", "switch fluorescence ratio": 1.02}, {"sequence": "TATAGGCGGA", "switch fluorescence ratio": 1.03}, {"sequence": "TATAGGTTAG", "switch fluorescence ratio": 0.958}, {"sequence": "TATAGTACA", "switch fluorescence ratio": 1.03}, {"sequence": "TATAGTTCGC", "switch fluorescence ratio": 1.02}, {"sequence": "TATATAGGTG", "switch fluorescence ratio": 1.17}, {"sequence": "TATATATTAT", "switch fluorescence ratio": 0.934}, {"sequence": "TATATCGACG", "switch fluorescence ratio": 1.01}, {"sequence": "TATATCGATC", "switch fluorescence ratio": 1.02}, {"sequence": "TATATCGGGC", "switch fluorescence ratio": 0.971}, {"sequence": "TATATGAAAG", "switch fluorescence ratio": 0.982}, {"sequence": "TATATGGATG", "switch fluorescence ratio": 0.955}, {"sequence": "TATATGTTTC", "switch fluorescence ratio": 1.05}, {"sequence": "TATATTAG", "switch fluorescence ratio": 1}, {"sequence": "TATATTTGAC", "switch fluorescence ratio": 0.972}, {"sequence": "TATCAACCAA", "switch fluorescence ratio": 0.977}, {"sequence": "TATCAATATA", "switch fluorescence ratio": 0.974}, {"sequence": "TATCAGAGTC", "switch fluorescence ratio": 1.01}, {"sequence": "TATCAGCCCG", "switch fluorescence ratio": 1}, {"sequence": "TATCAGGTGG", "switch fluorescence ratio": 1.06}, {"sequence": "TATCATGTTT", "switch fluorescence ratio": 1.07}, {"sequence": "TATCCACTCT", "switch fluorescence ratio": 1.02}, {"sequence": "TATCCATAGG", "switch fluorescence ratio": 1.04}, {"sequence": "TATCCCTTTC", "switch fluorescence ratio": 1.18}, {"sequence": "TATCCGGAGA", "switch fluorescence ratio": 1.04}, {"sequence": "TATCCTTGCC", "switch fluorescence ratio": 1.22}, {"sequence": "TATCCTTTTA", "switch fluorescence ratio": 0.972}, {"sequence": "TATCGAGAGG", "switch fluorescence ratio": 0.973}, {"sequence": "TATCGCAGCC", "switch fluorescence ratio": 1.15}, {"sequence": "TATCGCCAGG", "switch fluorescence ratio": 1.36}, {"sequence": "TATCGGCATC", "switch fluorescence ratio": 1.04}, {"sequence": "TATCGGCGTA", "switch fluorescence ratio": 0.922}, {"sequence": "TATCGGGCAC", "switch fluorescence ratio": 0.973}, {"sequence": "TATCGGGCG", "switch fluorescence ratio": 0.984}, {"sequence": "TATCGGGTTA", "switch fluorescence ratio": 0.956}, {"sequence": "TATCGGTTTG", "switch fluorescence ratio": 1}, {"sequence": "TATCGTACTG", "switch fluorescence ratio": 1.02}, {"sequence": "TATCGTCACG", "switch fluorescence ratio": 0.968}, {"sequence": "TATCGTGTTT", "switch fluorescence ratio": 0.993}, {"sequence": "TATCTAAAAT", "switch fluorescence ratio": 1.01}, {"sequence": "TATCTACCGG", "switch fluorescence ratio": 0.98}, {"sequence": "TATCTAGCTC", "switch fluorescence ratio": 1}, {"sequence": "TATCTAGCTG", "switch fluorescence ratio": 0.943}, {"sequence": "TATCTAGTT", "switch fluorescence ratio": 1.02}, {"sequence": "TATCTATCGC", "switch fluorescence ratio": 1.02}, {"sequence": "TATCTCGGAA", "switch fluorescence ratio": 1.11}, {"sequence": "TATCTGACGC", "switch fluorescence ratio": 1.25}, {"sequence": "TATCTGCATT", "switch fluorescence ratio": 1.17}, {"sequence": "TATCTGGCAT", "switch fluorescence ratio": 1.01}, {"sequence": "TATCTTAAGC", "switch fluorescence ratio": 0.998}, {"sequence": "TATCTTATCG", "switch fluorescence ratio": 1}, {"sequence": "TATCTTTAGA", "switch fluorescence ratio": 1.04}, {"sequence": "TATCTTTATA", "switch fluorescence ratio": 0.974}, {"sequence": "TATCTTTTAG", "switch fluorescence ratio": 0.992}, {"sequence": "TATGAAAAAA", "switch fluorescence ratio": 0.998}, {"sequence": "TATGAACCTA", "switch fluorescence ratio": 1.08}, {"sequence": "TATGAACGGG", "switch fluorescence ratio": 1.06}, {"sequence": "TATGACCATG", "switch fluorescence ratio": 0.991}, {"sequence": "TATGAGCCCT", "switch fluorescence ratio": 1.01}, {"sequence": "TATGAGCCGG", "switch fluorescence ratio": 0.958}, {"sequence": "TATGAGGAAT", "switch fluorescence ratio": 0.974}, {"sequence": "TATGAGTTCT", "switch fluorescence ratio": 0.963}, {"sequence": "TATGCAAAGC", "switch fluorescence ratio": 0.994}, {"sequence": "TATGCACTCA", "switch fluorescence ratio": 1.09}, {"sequence": "TATGCACTCG", "switch fluorescence ratio": 1.06}, {"sequence": "TATGCCACGG", "switch fluorescence ratio": 0.998}, {"sequence": "TATGCCCTCC", "switch fluorescence ratio": 1.05}, {"sequence": "TATGCCGAAT", "switch fluorescence ratio": 0.985}, {"sequence": "TATGCCGCTG", "switch fluorescence ratio": 1.01}, {"sequence": "TATGCGATTT", "switch fluorescence ratio": 0.922}, {"sequence": "TATGCTTTGT", "switch fluorescence ratio": 1.06}, {"sequence": "TATGCTTTT", "switch fluorescence ratio": 1.01}]}]}
